# Assay results as given in the supplement of paper PMC12217912.
# This is one part of the list. Sequences were assembled here from the parent chain. Inactive controls read about 0.05.
# B1: TEV protease; numbered along this chain (parent)
# chain: MGESLFKGPRDYNPISSSICHLTNESDGHTTSLYGIGFGPFIITNKHLFRRNNGTLVVQSLHGVFKVKDTTTLQQHLVDGRDMIIIRMPKDFPPFPQKLKFREPQREERICLVTTNFQTKSMSSMVSDTSCTFPSGDGIFWKHWIQTKDGQCGSPLVSTRDGFIVGIHSASNFTNTNNYFTSVPKNFMELLTNQEAQQWVSGWRLNADSVLWGGHKVFMVKPEEPFQPVKEATQL
# Variants of: B1
# Assay: raw area under fraction-flipped curve 0-4 h after induction (AUC4h, not background-subtracted), DNA-recorder readout of cleavage of the substrate (dimensionless); higher = more cleavage of the substrate by the protease variant
# Conditions: temperature: 34 °C; time window: 0-4 h after rhamnose induction
# Method: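 In vivo DNA recorder in E. coli TOP10(DE3) ΔrhaA at 34 °C. Each TEVp single-site mutant (parent TEVp 0) is paired with a single-site variant of the 7-mer TEVs (canonical ENLYFQ|S). The substrate sits between flexible linkers in a Bxb1-sfGFP-TEVs-SsrA fusion, so cleavage stabilises Bxb1 and speeds flipping of a recombination array, read by NGS. The value is the raw area under the fraction-flipped curve over 0-4 h after rhamnose induction (AUC4h), with ≥20 reads per time point. It is not background-subtracted; inactive controls average about 0.047.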
# 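Also: Bxb1 expression induced with 0.2% (w/v) L-rhamnose at OD600 near 0.5, cultures sampled hourly, flipped fraction per protease–substrate barcode pair counted by paired-end Illumina sequencing.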
Variant,area with substrate ENLYAQS,area with substrate ENLYCQS,area with substrate ENLYDQS,area with substrate ENLYEQS,area with substrate ENLYGQS,area with substrate ENLYHQS,area with substrate ENLYKQS,area with substrate ENLYNQS,area with substrate ENLYQQS,area with substrate ENLYSQS,area with substrate ENLYTQS,area with substrate ENLYVQS,area with substrate ENLYYQS,area with substrate ENLYIQS,area with substrate ENLYMQS,area with substrate ENLYRQS,area with substrate ENLYWQS,area with substrate ENLYPQS,area with substrate ENLYLQS
MGESLFKGPRDYNPISSSICHLTNESDGHTTSLYGIGFGPFIITNKHLFRRNNGTLVVQSLHGVFKVKDTTTLQQHLVDGRDMIIIRMPKDFPPFPQKLKFREPQREERICLVTTNFQTKSMSSMVSDTSCTFPSGDGIFWKHWIQTKDGQCGSPLVSTRDGFIVGIHSASNFTNTNNYFTSVPKNFMELLTNQEAQQWVSGWRLNADSVLWDGHKVFMVKPEEPFQPVKEATQL [G213D],0.0593,0.0654,0.0642,0.0693,0.0636,0.0597,0.0522,0.0453,0.0506,0.0657,0.0798,0.082,0.0666,–,–,–,–,–,–
MGESLFKGPRDYNPISSSICHLTNESDGHTTSLYGIKFGPFIITNKHLFRRNNGTLVVQSLHGVFKVKDTTTLQQHLVDGRDMIIIRMPKDFPPFPQKLKFREPQREERICLVTTNFQTKSMSSMVSDTSCTFPSGDGIFWKHWIQTKDGQCGSPLVSTRDGFIVGIHSASNFTNTNNYFTSVPKNFMELLTNQEAQQWVSGWRLNADSVLWGGHKVFMVKPEEPFQPVKEATQL [G37K],0.0579,0.0533,0.064,–,0.0484,0.0474,0.0448,0.051,0.0626,0.0464,–,–,0.05,0.0527,0.0537,0.0498,0.0552,–,–
MGESLFKGPRDYNPISSSICHLTNESDGHTTSLYGIGFGPFIITNKHLFRRNNGTLVVQSLHGVFKVKDTTTLQQHLVDGRDMIIIRMPKDFPPFPQKLKFREPQREERICLVTTNFQTKSMSSMVSDTSCTFPSGDGIFWKHWIQTKDGQCGSPLVSTRDGFIVGIHSASNFTNTNNYFTSYPKNFMELLTNQEAQQWVSGWRLNADSVLWGGHKVFMVKPEEPFQPVKEATQL [V183Y],0.0626,–,0.0641,0.1,0.0694,0.0554,–,–,–,0.0659,0.0389,–,0.0625,0.0771,0.0572,0.0673,0.0592,0.048,–
MGESLFKGPRDYNPISSSICHLTNESDGHTTSLYGIGFGPFIITNKHLFRRNNGTLVVQSLHGVFKVKDTTTLQQHLVDGRDMIIIRMPKDFPPFPQKLKFREPQREERICLVTTNFQTKDMSSMVSDTSCTFPSGDGIFWKHWIQTKDGQCGSPLVSTRDGFIVGIHSASNFTNTNNYFTSVPKNFMELLTNQEAQQWVSGWRLNADSVLWGGHKVFMVKPEEPFQPVKEATQL [S121D],0.0768,0.0858,0.0738,0.0722,0.0681,0.0713,–,0.0769,0.0711,0.074,0.0853,0.116,0.0589,0.101,0.0827,0.0749,–,0.0636,0.104
MGESLFKGPRDYNPISSSICHLTNESDGHTTSLYGIGFGPFIITNKHLFRRNNNTLVVQSLHGVFKVKDTTTLQQHLVDGRDMIIIRMPKDFPPFPQKLKFREPQREERICLVTTNFQTKSMSSMVSDTSCTFPSGDGIFWKHWIQTKDGQCGSPLVSTRDGFIVGIHSASNFTNTNNYFTSVPKNFMELLTNQEAQQWVSGWRLNADSVLWGGHKVFMVKPEEPFQPVKEATQL [G54N],0.0648,–,0.0649,0.0635,0.0603,0.0604,0.0692,0.0719,0.0618,0.0571,0.0618,0.0552,0.0529,0.0752,0.0584,0.062,0.0695,0.0608,–
MGESLFKGPRDYNPISSSICHLTNESDGHTTSLYGIGFGPFIITNKHLFRRNNGTLVVQSLHGVFKVKDTTTLQQHLVDGRDMIIIRMPKDFPPFPQKLKFREPQREERICLVTTNFQTKVMSSMVSDTSCTFPSGDGIFWKHWIQTKDGQCGSPLVSTRDGFIVGIHSASNFTNTNNYFTSVPKNFMELLTNQEAQQWVSGWRLNADSVLWGGHKVFMVKPEEPFQPVKEATQL [S121V],0.08,–,0.0617,0.0671,0.0534,0.0761,0.0734,0.0646,0.0662,–,0.0808,0.0748,0.0427,0.125,0.0608,–,0.0859,0.0576,0.084
MGESLFKGPRDYNPISSSICHLTNESDGHTTSLYGIGFGPFIITNKHLFRRNNGTLVVQSLHGVFKVKDTTTLQQHLVDGRDMIIIRMPKDFPPFPQKLKFREPQREERICLVTTNFQTKSMSSMVSDTSCTFPSGDGIFWKHWIQTKDGQCGSPLVSTRDGFIVGIHSASNFTNTNNYFTSVPKNFMELLTNQEAQQWVSGWRLNADSVLWGGHKVFMVKPREPFQPVKEATQL [E223R],0.0562,–,0.0752,0.0638,0.0573,0.0674,0.0605,0.0752,0.0834,0.069,0.0987,0.0455,0.0758,–,0.0826,–,–,0.09,0.0859
MGESLFKGPRMYNPISSSICHLTNESDGHTTSLYGIGFGPFIITNKHLFRRNNGTLVVQSLHGVFKVKDTTTLQQHLVDGRDMIIIRMPKDFPPFPQKLKFREPQREERICLVTTNFQTKSMSSMVSDTSCTFPSGDGIFWKHWIQTKDGQCGSPLVSTRDGFIVGIHSASNFTNTNNYFTSVPKNFMELLTNQEAQQWVSGWRLNADSVLWGGHKVFMVKPEEPFQPVKEATQL [D11M],0.0651,–,0.062,0.0572,0.0619,0.06,0.0867,0.0516,0.0675,0.0633,0.0519,0.0858,0.0689,0.0679,0.0422,0.0637,0.07,0.0651,–
MGESLFKGPRDYNPISSSICHLTNESDGHTTSLYGIGFGPFIITNKHLFRRNNGTLVVQSLHGVFKVKDTTTLWQHLVDGRDMIIIRMPKDFPPFPQKLKFREPQREERICLVTTNFQTKSMSSMVSDTSCTFPSGDGIFWKHWIQTKDGQCGSPLVSTRDGFIVGIHSASNFTNTNNYFTSVPKNFMELLTNQEAQQWVSGWRLNADSVLWGGHKVFMVKPEEPFQPVKEATQL [Q74W],0.0548,–,0.0746,0.0685,0.0687,0.0599,0.0662,0.0651,0.0463,0.0682,0.0817,0.0958,–,0.118,0.0652,0.0653,0.0716,–,0.069
